The campaign covered roughly 390,000 compounds. About 930 (0.24%) were called active. The inconclusive results got no clear call from the source; some entries with a clear call stand among them for comparison. Calls follow the shape of the dose curve; as a rule, active = well fitted activation curve with a large enough effect; inconclusive = small, poorly fitted or top-dose-only effect; inactive = no such curve, though single readings can be large or run the other way. Potencies of inconclusive entries are doubtful fits and often do not repeat.
Test: qHTS for Suppressors of FUS Proteinopathy: Primary screen using FUS-linked yeast assay; also: nearly all actives have a fitted effect of over 55% in size
Settings: S. cerevisiae FUS-expressing, OD600, 24 h; Potency: growth rescue; series mostly up to 76.6 µM
Summary of the method: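 Quantitative HTS measuring growth restoration of FUS-toxic yeast. Galactose-induced cells (OD 0.005) were exposed 24hr at 30C to compounds at several concentrations, then absorbance at 600 nm was recorded.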
Potency is read from the fitted curve at half-maximal effect; tags tell the direction and shape of the fitted curve.

| Compound | Potency |
| --- | --- |
| COc1ccc(-c2cc(C(=O)N3CCN(c4ccccc4)CC3)c3ccccc3n2)cc1 | inconclusive: 50.1 µM [activator, single point] |
| CCc1c(O)cc(=O)n(-c2ccccc2)c1-c1ccccc1 | inconclusive: 17.8 µM [activator, partial curve, poor fit] |
| COc1ccc2nc(N(Cc3cccnc3)C(=O)c3ccco3)sc2c1 | inactive |
| Cc1ccc2nsnc2c1NC(=O)c1ccc([N+](=O)[O-])o1 | inactive |
| CC(=O)c1cccc(NCC(=O)Nc2cc(S(=O)(=O)N3CCCCC3)ccc2C)c1 | inconclusive: 17.8 µM [activator, partial curve, poor fit] |
| Clc1ccc(CN2CCCCCC2)cc1 | inactive |
| Cn1c(=O)c(-c2ccccc2N)nc2ccccc21 | inconclusive: 28.2 µM [activator, partial curve, poor fit] |
| COC(=O)C1=CN(c2ccccc2OC)C(N)=C(C#N)C1c1cccc([N+](=O)[O-])c1 (stereo not given) | inconclusive: 28.2 µM [activator, single point] |
| COc1ccccc1NC(=O)CSc1oc(-c2ccco2)nc1S(=O)(=O)c1ccc(Br)cc1 | inconclusive: 28.2 µM [activator, single point] |
| Cc1c(CCC(=O)N[C@@H](CC(C)C)C(=O)O)c(=O)oc2cc3oc4c(c3cc12)CCCC4 | inconclusive: 50.1 µM [activator, single point] |
| CCCCCN(C(=O)CCC(=O)OC(C)C(=O)c1ccc(Cl)cc1)c1c(N)n(CCCC)c(=O)[nH]c1=O (stereo not given) | active: 31.6 µM |
| Clc1ccc(C2=C3CCCCn4c(-c5ccccc5)c[n+](c43)C2)cc1 | inactive |
| Cc1cc(Nc2cc(Cl)ccc2C)n2nc(Cc3ccccc3)nc2n1 | inactive |
| Cc1ccccc1C(=O)NNC(=S)NC(=O)c1ccc(Cl)cc1Cl | inactive |
| Cc1cc(C)c(S(=O)(=O)NCC(c2ccc(N(C)C)cc2)N2CCc3ccccc32)c(C)c1 (stereo not given) | inconclusive: 39.8 µM [activator, single point] |
| CCOc1ccc(CCN2C(=S)N([C@@H](CC(C)C)CN3CCCC3CN3C(=S)NC[C@@H]3CC(C)C)C[C@@H]2Cc2ccc(O)cc2)cc1 (stereo not given in full) | inconclusive: 25.1 µM [activator, single point] |
| CCCCCCCCN1C(=O)[C@H](CC(=O)NCCc2ccccc2OC)C[C@@]2(C(=O)OC)CCCCC=C12 | inconclusive: 35.5 µM [activator, partial curve, poor fit] |
| COc1ccc(NCc2nnc(SCC(=O)NCc3ccccc3)n2-c2ccccc2OC)cc1 | inconclusive: 17.8 µM [activator, partial curve] |
| CCCCNC(=O)COC(=O)c1cc2c(C)nn(-c3ccccc3)c2s1 | inactive |
| Cc1ccc(C(=O)Nc2ccc3c(c2)OCO3)cc1S(=O)(=O)N1CCCCC1 | inconclusive: 50.1 µM [activator, single point] |
| CC1(c2nc3ccccc3[nH]2)CCC2=Nc3ccccc3CN21 (stereo not given) | inactive |
| CCc1ccc(S(=O)(=O)c2cn(C)c3cc(OC)c(OC)cc3c2=O)cc1 | inconclusive: 39.8 µM [activator, single point] |
| C=CCn1c(SCC(=O)c2ccc(F)cc2)nnc1-c1ccc(F)cc1 | inactive |

| Compound | Potency |
| --- | --- |
| Cc1ccc(Cc2c(-c3cccc(Cl)c3)nc3ccc(Cl)cn23)cc1 | inactive |
| CCOc1cccc(C2c3[nH]c4ccccc4c3CCN2C(=O)CCc2ccccc2)c1 (stereo not given) | inactive |
| COc1ccc(C2=Nc3ccccc3N(C(=O)Cc3cc(OC)cc(OC)c3)C2C(=O)NC(C)(C)C)cc1 (stereo not given) | inconclusive: 11.2 µM [activator, partial curve] |
| COc1ccc(NCc2nc3ccccc3n2CCOc2ccc(C)cc2)cc1 | inconclusive: 35.5 µM [activator, single point] |
| COc1ccc(C(O)c2ncc(-c3ccccc3C)[nH]2)cc1 (stereo not given) | inactive |
| S=c1[nH]nc(-c2ccncc2)n1/N=C/c1ccccc1 | inconclusive: 31.6 µM [activator, single point] |
| COc1ccc(OC)c(S(=O)(=O)N2CCN(c3ccc(F)cc3)CC2)c1 | inconclusive: 3.98 µM [activator, full curve] |
| COc1ccc(-c2sc(Nc3ccccc3)n[n+]2-c2ccc(F)cc2)c(C)c1C | inconclusive: 39.8 µM [activator, single point] |
| CC(=O)c1cccc(S(=O)(=O)N2CCCC(c3nc4c(nnn4Cc4ccc(C)cc4)c(=O)[nH]3)C2)c1 (stereo not given) | inconclusive: 25.1 µM [activator, single point] |
| CCOc1ccc(S(=O)(=O)c2cn(Cc3ccc(C)cc3)c3ccc(OC)cc3c2=O)cc1 | active: 15.8 µM |
| CCOc1ccc2cc(-c3nnc(Nc4ccccc4F)s3)c(=O)oc2c1 | inactive |
| Cc1ccccc1C1CC(c2ccc(Br)cc2)Nc2nc(N)nn21 (stereo not given) | inconclusive: 25.1 µM [activator, partial curve] |
| Cc1ccc(NCc2nc3ccccc3n2CCOc2ccccc2C)cc1 | inconclusive: 44.7 µM [activator, single point] |
| COc1ccc(CN(C)c2ncnc3sccc23)c(OC)c1OC | inactive |
| O=c1c2cc3cc(Cl)ccc3nc2ncn1N1CCCCC1 | inactive |
| CCc1cccc(C)c1NC(=O)COCc1cc(-c2ccc3c(c2)OCO3)on1 | inactive |
| O=C(Nc1nnc(C2CC2)s1)c1cc(S(=O)(=O)N2CCCCC2)ccc1N1CCOCC1 | inconclusive: 31.6 µM [activator, single point] |
| O=C(Nc1cccnc1)c1ccccc1Cl | inactive |
| CC1CCCCN1C(=O)CSc1nc2ccccc2nc1Cc1ccc(Cl)cc1 (stereo not given) | active: 25.1 µM |
| COC(=O)/C(C#N)=C/c1c(N2CCN(c3ccccc3)CC2)nc2c(C)cccn2c1=O | inconclusive: 14.1 µM [activator, partial curve, poor fit] |
| O=c1c2c3c(sc2nc(NCCO)n1CCc1ccccc1)CCCCC3 | inconclusive: 35.5 µM [activator, single point] |
| O=C(NCC1CCCO1)C(c1cccs1)N(Cc1cccs1)C(=O)c1ccc(-c2ccccc2)[nH]1 (stereo not given) | active: 35.5 µM |

From PubChem BioAssay AID1347120 (National Center for Advancing Translational Sciences (NCATS), 2019)
